The source of these data is PubChem BioAssay AID463173 (ICCB-Longwood Screening Facility, Harvard Medical School, 2010).

Hit rate of the full screen: of about 52,000 compounds, about 4,300 (8.3%) were called active. No stated cut-off is given here; in the data, active means survival mostly below about 52% (no sharp cut-off); inactive means mostly above about 56%. Some of the results follow.

For this test, the system named is DeltatarO mutant. The test can be described thus: S. aureus survival, RN4220 and DeltatarO strains – OD600, teichoic acid synthesis inhibitors, primary screen (AID 463173). The following applies: S. aureus RN4220 wild type/DeltatarO growth, OD600, 18 h, stronger effect = lower value, screened at 18.75 µg/mL (by protocol).
Take `O=C(c1ccc(F)cc1F)N1CCC(c2noc(-c3ccc(S(=O)(=O)N4CCCC4)cc3)n2)CC1`: the survival was inactive: 97%.

Take `O=C(CNS(=O)(=O)c1ccccc1)NCc1ccccn1`: the survival is inactive: 63%.

In the case of `CC(Nc1ccc(-c2nc(-c3ccccn3)no2)cc1[N+](=O)[O-])c1ccccc1` (stereo unspecified), the survival is active: 19%.

Turning to `Cc1ccc(C)c(Cn2nc(C)n3c(cc4cc(C)ccc43)c2=O)c1`, the survival was inactive: 96%.

In the case of `COC(=O)c1ccc(OCC2c3cc(OC)c(OC)cc3CCN2C(=O)c2ccccc2F)cc1` (stereo unspecified), the survival is inactive: 86%.

For `Cc1ccc(CNC(=O)c2c(-c3cccc(Br)c3)noc2C)o1`, the survival was inactive: 87%.

As to `CCCCCn1c(=N)n(CC(O)COc2cccc(C)c2)c2ccccc21` (stereo unspecified), the survival is inactive: 59%.

As for `O=C(CSCc1cnn(-c2ccccc2)c1-n1cccc1)Nc1ccc(F)cc1F`, the survival was inactive: 60%.

On to `Cc1ccc2oc(=O)n(CCNC(=O)Nc3ccc(C)c(F)c3)c2c1`, for which the survival was inactive: 108%.

As for `Cc1ccccc1CSc1nc2cccnc2n1Cc1ccc(C(=O)NCCc2cccs2)cc1`, the survival was active: 47%.

In the case of `Cc1ccc(N2CCN(C(=O)c3noc4c3COc3ccc(C)cc3-4)CC2)c(C)c1`, the survival is inactive: 75%.

With `Cc1ccc(CN(C(=O)COc2ccc(Br)cc2)c2ccccn2)o1`, the survival is inactive: 62%.

Regarding `COc1ccc(NC(=O)CSc2nc(-c3ccccc3)nc3c2Cc2c(CO)cnc(C)c2O3)cc1Cl`, the survival was inactive: 69%.

Consider `COc1ccc(Cl)cc1N(C)C(=O)C(=O)Nc1ccc2nc3n(c(=O)c2c1)CCCCC3`, for which the survival was inactive: 51%.

For the molecule `Cc1ccc(C)c(N2CCN(C(=O)C(C)n3c(C)c4cnn(-c5ccccc5)c(=O)c4c3C)CC2)c1` (stereo unspecified), the survival was inactive: 64%.

With `COc1ccc(-c2noc(CCC(=O)NCc3ccc(OC)cc3OC)n2)cc1`, the survival was inactive: 119%.

Turning to `CCCN(CCC)CC(O)Cn1cc(/C=C/C(=O)c2ccc(OCC)cc2)c2ccccc21` (stereo unspecified), the survival is active: 11%.

With `CCn1cc(C(=O)N(C)Cc2ccccc2)c(=O)c2cc(S(=O)(=O)N3CCCCCC3)ccc21`, the survival was inactive: 70%.

In the case of `COC(=O)c1ccc(Cl)c(NC(=O)C2CCN(S(=O)(=O)Cc3ccccc3)CC2)c1`, the survival was inactive: 104%.

In the case of `Cc1cccc(C(=O)Nc2cccc(OCc3cc(=O)n4c(C)csc4n3)c2)c1`, the survival is inactive: 65%.

With `CCc1ccc(NC(=O)c2cc3c(=O)n(Cc4cccnc4)ccc3nc2C)cc1`, the survival was inactive: 101%.

As to `CC(C)c1nn2c(=O)cc(COC(=O)CNC(=O)c3ccccc3)nc2s1`, the survival was inactive: 129%.

In the case of `COc1ccc(Nc2nc(N)nc(CSc3nc4cc(OC)ccc4s3)n2)cc1`, the survival was active: 41%.

For `COc1ccc(NC(=O)Cc2csc(COc3cccc(C)c3)n2)c(OC)c1`, the survival was inactive: 90%.

Regarding `CCOC(=O)c1c(-c2cccs2)csc1NC(=O)c1ccccc1`, the survival was inactive: 103%.

For the molecule `CCCc1nn2c(=O)cc(COC(=O)c3ccccc3NC(=O)C3CCCCC3)nc2s1`, the survival is inactive: 78%.

`O=C(CCCC(=O)Nc1nccs1)Nc1nccs1`: the survival was inactive: 83%.

Regarding `CCC(=O)N1CCc2cc(S(=O)(=O)CCC(=O)NCc3ccccc3Cl)ccc21`, the survival is inactive: 100%.

`COC(=O)c1c(C)sc(-c2c(-c3ccc(F)cc3)[nH]c3[nH]c(=O)[nH]c(=O)c23)c1O`: the survival is inactive: 116%.

As to `Cc1ccc(NC(=O)C2CCN(S(=O)(=O)c3cccs3)CC2)cc1`, the survival was active: 40%.

Take `CCOc1cccc(CC(=O)N2CCc3c([nH]c4ccccc34)C2c2ccc(OC)cc2)c1OCC` (stereo unspecified): the survival was inactive: 86%.

With `COc1ccc(Cn2c(C(=O)O)c(CNCCc3cccs3)c3ccc(OC)cc32)cc1`, the survival is inactive: 64%.

Regarding `COc1cccc(CNCCCSc2nnnn2C)c1`, the survival is inactive: 101%.

As for `Cc1oc2ncn(C)c(=O)c2c1C(=O)N1CCN(c2ccc(Cl)cc2)CC1`, the survival is inactive: 61%.

`Cc1ccccc1CN1C(=O)c2ccccc2S(=O)c2ccc(C(=O)NCc3ccccc3)cc21` (stereo unspecified): the survival is inactive: 85%.

In the case of `COc1ccc(CCNC(=O)CCc2c(C)nc3c(-c4ccc(F)cc4)c(C)nn3c2C)cc1OC`, the survival was inactive: 127%.

As for `CC1=C(C(=O)OC2CCCCCC2)C(c2ccccc2Cl)CC(=O)N1` (stereo unspecified), the survival is inactive: 72%.

Take `COCCCNC(=O)N1CCN(c2nnc(C)c3c(C)n(-c4ccc(Cl)cc4)nc23)CC1`: the survival was inactive: 96%.

Turning to `Cc1ccc(-n2c(SCc3nc(-c4ccc(Cl)cc4)no3)nnc2-c2ccncc2)cc1`, the survival was active: 37%.

For `CCc1ccc(NS(=O)(=O)c2ccc3[nH]cc(C(=O)N4CCCCCC4)c(=O)c3c2)cc1`, the survival is inactive: 73%.

On to `O=C1CN(C(=O)c2ccc(S(=O)(=O)N3CCCC3)cc2)C(c2ccc(F)cc2)c2cc(F)ccc2N1` (stereo unspecified), for which the survival was inactive: 62%.

Consider `CCc1cccc(NC(=O)c2sc3nc[nH]c(=O)c3c2C)c1`, for which the survival is inactive: 83%.

Take `CCOC(=O)Cc1ccc(NC(=O)N2CCC(CN3CCC(C)CC3)CC2)cc1`: the survival was inactive: 81%.

In the case of `COc1ccc(N(C(=O)c2ccc(C)cc2)S(=O)(=O)c2ccc(Cl)cc2)cc1`, the survival was inactive: 76%.

Take `CCN(c1ccccc1)S(=O)(=O)c1nnc(NC(=O)C(C)Oc2ccccc2)s1` (stereo unspecified): the survival is inactive: 43%.

For the molecule `COc1cc(C2C(C(=O)Nc3ccc(C)cc3C)=C(C)Nc3nc(SCc4ccccc4)nn32)cc(OC)c1OC` (stereo unspecified), the survival was inactive: 64%.

Consider `O=C1c2oc3ccccc3c(=O)c2C(c2cccc(O)c2)N1Cc1ccc(F)cc1` (stereo unspecified), for which the survival is inactive: 77%.

As for `CCOc1ccc(N(CC(=O)Nc2ccc3c(c2)OCO3)S(=O)(=O)c2ccccc2)cc1`, the survival was inactive: 87%.

Regarding `Cc1ccccc1Nc1c(-c2ccccc2O)nc2sccn12`, the survival was inactive: 69%.

Regarding `Cc1nn(C)c2c1c(-c1ccccc1)cc(=O)n2Cc1c(F)cccc1Cl`, the survival was active: -5%.

Turning to `O=C(c1cc(-c2ccc(Cl)cc2)on1)N(Cc1ccc(F)cc1)Cc1ccco1`, the survival was inactive: 78%.

Take `CCOc1ccc(C(=O)Nc2cc(-c3ccccc3)no2)cc1`: the survival is inactive: 90%.

In the case of `COc1ccc(N(Cc2cccs2)C(=O)COc2ccc([N+](=O)[O-])cc2)cc1`, the survival was inactive: 58%.

On to `CCN(Cc1ccccc1)C(=O)c1cc2ccc3cccnc3c2[nH]1`, for which the survival was inactive: 49%.

As to `CCOc1ccccc1NC(=O)c1cc2ccc3cccnc3c2[nH]1`, the survival is active: 37%.

In the case of `Cc1ccc2oc3c(c(=O)c2c1)C(c1cccc(O)c1)N(CCCN1CCOCC1)C3=O` (stereo unspecified), the survival is inactive: 80%.
